This is an account of results in patent US7652041B2, “Cinnamide and hydrocinnamide derivatives with kinase inhibitory activity” (Millennium Pharmaceuticals, Inc., priority 2005, dated 2010).

For this assay, the system named is A375 cells. Kind of assay: Phospho-ERK ELISA assay. The conditions noted are these: Homo sapiens, A-375, 3 hours with inhibitor, anti-p44/42MAPK antibody ELISA, normalized for protein content. The format is cell-based. As for the experimental part: Inhibition of Raf kinase activity in whole cell systems can be assessed by determining the decrease in phosphorylation of Raf kinase substrates. Any known Raf kinase substrate can be used to measure inhibition of Raf kinase activity in a whole cell system.
In a specific example, A375 cells were seeded in a 96-well cell culture plate (12×10^3 cells/100 μL/well) and incubated overnight at 37° C. Medium was removed, and cells were incubated with Raf kinase inhibitors for 3 hours at 37° C. Medium was removed, and cells were fixed with 4% paraformaldehyde for 15 minutes at room temperature.
Methanol was added for 15 min. Cells were removed and blocked with 10% sheep serum and 1% BSA in PBS overnight at 4° C. Cells were incubated with anti-p44/42MAPK antibody (1:100, Cell Signaling Technologies, #9101L) (20 μL/well) for one hour at room temperature. After washing with PBS three times, cells were stained with anti-rabbit horseradish peroxidase-linked antibody from donkey (1:100, Amersham Bioscience #NA934V) for 1 hour at room temperature. Cells were washed three times with 0.5% Tween-20 in PBS and twice with PBS. 3,3′,5,5′-Tetramethylbenzidine (TMB) liquid substrate system (Sigma, #T8665) (50 μL/well) was added, and cells were incubated for 30-45 minutes at room temperature. Optical density was read at 650 nm. Cells were then washed 3-5 times with PBS to remove color solution. Results were normalized for the protein content in each well using a BCA protein assay kit (Pierce).
For `NC(=O)c1nnc(-c2cc(Oc3cccc(CCC(=O)Nc4ccc(Cl)c(C(F)(F)F)c4)c3)ccn2)o1` [Compound A-102, 5-{4-[3-(3-{[4-chloro-3-(trifluoromethyl)phenyl]amino}-3-oxopropyl)phenoxy]pyridin-2-yl}-1,3,4-oxadiazole-2-carboxamide], the IC50 was in the range of 10 to 25 µM.

For the compound `O=C(CCc1cccc(Oc2ccnc(C3=NCCN3)c2)c1)Nc1cc(C(F)(F)F)ccc1F` [Compound A-103, 3-(3-{[2-(4,5-dihydro-1H-imidazol-2-yl)pyridin-4-yl]oxy}phenyl)-N-[2-fluoro-5-(trifluoromethyl)phenyl]propanamide], the IC50 fell in the range of 1 to 10 µM.

`CC(C)(O)c1cccc(NC(=O)CCc2cccc(Oc3ccnc(C4=NCCN4)c3)c2)c1` [Compound A-104, 3-(3-{[2-(4,5-dihydro-1H-imidazol-2-yl)pyridin-4-yl]oxy}phenyl)-N-[3-(1-hydroxy-1-methylethyl)phenyl]propanamide] gave an IC50 of 1 to 10 µM.

With `O=C(CCc1cccc(Oc2ccnc(-c3ncc[nH]3)c2)c1)Nc1ccc(Cl)c(C(F)(F)F)c1` [Compound A-105, N-[4-chloro-3-(trifluoromethyl)phenyl]-3-(3-{[2-(1H-imidazol-2-yl)pyridin-4-yl]oxy}phenyl)propanamide], the IC50 was 10 to 25 µM.

`O=C(CCc1ccc(Oc2ccnc(C3=NCCN3)c2)cc1)Nc1ccc(Cl)cc1` [Compound A-106, N-(4-chlorophenyl)-3-(4-{[2-(4,5-dihydro-1H-imidazol-2-yl)pyridin-4-yl]oxy}phenyl)propanamide] had an IC50 of 10 to 25 µM.

As to `O=C(CCc1cccc(Oc2ccnc(C3=NCCN3)c2)c1)Nc1cc(F)cc(C(F)(F)F)c1` [Compound A-108, 3-(3-{[2-(4,5-dihydro-1H-imidazol-2-yl)pyridin-4-yl]oxy}phenyl)-N-[3-fluoro-5-(trifluoromethyl)phenyl]propanamide], the IC50 is 1 to 10 µM.

`CNCc1cnc(-c2cc(Oc3cccc(CCC(=O)Nc4ccc(Cl)c(C(F)(F)F)c4)c3)ccn2)[nH]1` [Compound A-109, N-[4-chloro-3-(trifluoromethyl)phenyl]-3-{3-[(2-{5-[(methylamino)methyl]-1H-imidazol-2-yl}pyridin-4-yl)oxy]phenyl}propanamide] displayed an IC50 of 1 to 10 µM.

For the compound `CCOC(=O)c1cnc(-c2cc(Oc3cccc(CCC(=O)Nc4ccc(Cl)c(C(F)(F)F)c4)c3)ccn2)[nH]1` [Compound A-110, ethyl 2-{4-[3-(3-{[4-chloro-3-(trifluoromethyl)-phenyl]amino}-3-oxopropyl)phenoxy]pyridin-2-yl}-1H-imidazole-5-carboxylate], the IC50 was 1 to 10 µM.

In the case of `CCNC(=N)c1cc(Oc2ccc(CCC(=O)Nc3ccc(Cl)c(C(F)(F)F)c3)cc2)ccn1` [Compound A-112, N-[4-chloro-3-(trifluoromethyl)phenyl]-3-[4-({2-[(ethylamino)(imino)methyl]pyridin-4-yl}oxy)phenyl]propanamide], the half-inhibitory concentration (IC50) fell in the range of 10 to 25 µM.

For the compound `O=C(CCc1cccc(Oc2ccnc(-c3ncc(C(=O)O)[nH]3)c2)c1)Nc1ccc(Cl)c(C(F)(F)F)c1` [Compound A-113, 2-{4-[3-(3-{[4-chloro-3-(trifluoromethyl)phenyl]amino}-3-oxopropyl)phenoxy]pyridin-2-yl}-1H-imidazole-4-carboxylic acid], the half-inhibitory concentration (IC50) lay in the range of 1 to 10 µM.

The compound `CC(C)(C)c1cccc(NC(=O)CCc2ccc(Oc3ccnc(C4=NCCN4)c3)cc2)c1` [Compound A-115, N-(3-tert-butylphenyl)-3-(4-{[2-(4,5-dihydro-1H-imidazol-2-yl)pyridin-4-yl]oxy}phenyl)propanamide] displayed an IC50 not above 1 µM.

In turn, `N#Cc1cc(NC(=O)CCc2cccc(Oc3ccnc(C4=NCCN4)c3)c2)cc(C(F)(F)F)c1` [Compound A-117, N-[3-cyano-5-(trifluoromethyl)phenyl]-3-(3-{[2-(4,5-dihydro-1H-imidazol-2-yl)pyridin-4-yl]oxy}phenyl)propanamide] registered an IC50 of 1 to 10 µM.

For the compound `C[C@H]1CNC(c2cc(Oc3cccc(CCC(=O)Nc4ccc(Cl)c(C(F)(F)F)c4)c3)ccn2)=N1` [Compound A-122, N-[4-chloro-3-(trifluoromethyl)phenyl]-3-[3-({2-[(4S)-4-methyl-4,5-dihydro-1H-imidazol-2-yl]pyridin-4-yl}oxy)phenyl]propanamide], the IC50 was 1 to 10 µM.

Consider `NC1CCCN(c2nccc(Oc3cccc(CCC(=O)Nc4ccc(Cl)c(C(F)(F)F)c4)c3)n2)C1` (stereo not shown) [Compound A-124, 3-(3-{[2-(3-aminopiperidin-1-yl)pyrimidin-4-yl]oxy}phenyl)-N-[4-chloro-3-(trifluoromethyl)phenyl]propanamide], for which the half-maximal inhibitory concentration (IC50) was in the range of 1 to 10 µM.

The compound `O=C(CCc1ccc(Oc2ccnc(C3=NCCN3)c2)c(Cl)c1)Nc1ccc(Cl)c(C(F)(F)F)c1` [Compound A-127, 3-(3-chloro-4-{[2-(4,5-dihydro-1H-imidazol-2-yl)pyridin-4-yl]oxy}phenyl)-N-[4-chloro-3-(trifluoromethyl)phenyl]propanamide] came in with an IC50 of 1 to 10 µM.

`COc1ccc(NC(=O)CCc2cccc(Oc3ccnc(C4=NCCN4)c3)c2)cc1C(F)(F)F` [Compound A-128, 3-(3-{[2-(4,5-dihydro-1H-imidazol-2-yl)pyridin-4-yl]oxy}phenyl)-N-[4-methoxy-3-(trifluoromethyl)phenyl]propanamide] yielded an IC50 of 1 to 10 µM.

Take `CN(C)CCOc1cc(NC(=O)CCc2cccc(Oc3ccnc(C4=NCCN4)c3)c2)cc(C(F)(F)F)c1` [Compound A-129, 3-(3-{[2-(4,5-dihydro-1H-imidazol-2-yl)pyridin-4-yl]oxy}phenyl)-N-[3-[2-(dimethylamino)ethoxy]-5-(trifluoromethyl)phenyl]propanamide]: the half-inhibitory concentration (IC50) lay in the range of 1 to 10 µM.

As to `O=C(CCc1cccc(Oc2ccnc(C3=NCCN3)c2)c1)Nc1cccc(OC(F)(F)F)c1` [Compound A-130, 3-(3-{[2-(4,5-dihydro-1H-imidazol-2-yl)pyridin-4-yl]oxy}phenyl)-N-[3-(trifluoromethoxy)phenyl]propanamide], the 50% inhibitory concentration (IC50) lay within 1 to 10 µM.

For the compound `CC(CC(=O)Nc1ccc(Cl)c(C(F)(F)F)c1)c1cccc(Oc2ccnc(C3=NCCN3)c2)c1` (stereo not shown) [Compound A-132, N-[4-chloro-3-(trifluoromethyl)phenyl]-3-(3-{[2-(4,5-dihydro-1H-imidazol-2-yl)pyridin-4-yl]oxy}phenyl)butanamide], the IC50 is 1 to 10 µM.

Compound `O=C(CCc1cccc(Oc2ccnc(C3=NCC(O)CN3)c2)c1)Nc1ccc(Cl)c(C(F)(F)F)c1` (stereo not shown) [Compound A-137, N-[4-chloro-3-(trifluoromethyl)phenyl]-3-(3-{[2-(5-hydroxy-1,4,5,6-tetrahydropyrimidin-2-yl)pyridin-4-yl]oxy}phenyl)propanamide] showed an IC50 of 10 to 25 µM.

On to `C#Cc1ccc(NC(=O)CCc2cccc(Oc3ccnc(C4=NCCN4)c3)c2)cc1C(F)(F)F` [Compound A-144, 3-(3-{[2-(4,5-dihydro-1H-imidazol-2-yl)pyridin-4-yl]oxy}phenyl)-N-[4-ethynyl-3-(trifluoromethyl)phenyl]propanamide], for which the IC50 is not above 1 µM.

Compound `O=C(CCc1cccc(Oc2ccnc(C3=NCCN3)c2)c1)Nc1ccc(CCCO)c(C(F)(F)F)c1` [Compound A-145, 3-(3-{[2-(4,5-dihydro-1H-imidazol-2-yl)pyridin-4-yl]oxy}phenyl)-N-[4-(3-hydroxypropyl)-3-(trifluoromethyl)phenyl]propanamide] yielded an IC50 of 1 to 10 µM.

Compound `O=C(CCc1cccc(Oc2ccnc(-c3ncc(CO)[nH]3)c2)c1)Nc1ccc(Cl)c(C(F)(F)F)c1` [Compound A-147, N-[4-chloro-3-(trifluoromethyl)phenyl]-3-[3-({2-[5-(hydroxymethyl)-1H-imidazol-2-yl]pyridin-4-yl}oxy)phenyl]propanamide] showed a 50% inhibitory concentration (IC50) of 1 to 10 µM.

Compound `NCCc1cc(NC(=O)CCc2cccc(Oc3ccnc(C4=NCCN4)c3)c2)cc(C(F)(F)F)c1` [Compound A-148, N-[3-(2-aminoethyl)-5-(trifluoromethyl)phenyl]-3-(3-{[2-(4,5-dihydro-1H-imidazol-2-yl)pyridin-4-yl]oxy}phenyl)propanamide] came in with an IC50 of 1 to 10 µM.

`CNC(=O)c1cc(Oc2cccc(CCC(=O)Nc3cc(C(C)(C)C)on3)c2)ccn1` [Compound A-149, 4-(3-{3-[(5-tert-butylisoxazol-3-yl)amino]-3-oxopropyl}phenoxy)-N-methylpyridine-2-carboxamide]: the half-inhibitory concentration (IC50) was 1 to 10 µM.

Compound `O=C(CCc1cccc(Oc2ccnc(C3=NCCN3)c2)c1)Nc1cccc(C(F)(F)F)c1` [Compound A-151, 3-(3-{[2-(4,5-dihydro-1H-imidazol-2-yl)pyridin-4-yl]oxy}phenyl)-N-[3-(trifluoromethyl)phenyl]propanamide] yielded an IC50 of 1 to 10 µM.

In turn, `N=C(NCc1cc(Oc2cccc(CCC(=O)Nc3ccc(Cl)c(C(F)(F)F)c3)c2)ccn1)c1ccccc1` [Compound A-153, N-[4-chloro-3-(trifluoromethyl)phenyl]-3-(3-{[2-({[imino(phenyl)methyl]amino}methyl)pyridin-4-yl]oxy}phenyl)propanamide] had an IC50 of 1 to 10 µM.

For `CN1CCN=C1c1cc(Oc2cccc(CCC(=O)Nc3cccc(C(C)(C)C)c3)c2)ccn1` [Compound A-154, N-(3-tert-butylphenyl)-3-(3-{[2-(1-methyl-4,5-dihydro-1H-imidazol-2-yl)pyridin-4-yl]oxy}phenyl)propanamide], the IC50 is 1 to 10 µM.
